# From PubChem BioAssay AID588855 (National Center for Advancing Translational Sciences (NCATS), 2011)
# “And” between values parts separate entries of the source, which are not always exact repeats. Equal values may be shown once. Hit rate of the full screen: of about 410,000 compounds, about 5,000 (1.2%) were called active. Inconclusive results, whose numbers are uncertain, are shown with a selection of clear calls. The call rests on the fitted dose curve; in most records, active means well fitted inhibition curve with a large enough effect; inconclusive means small, poorly fitted or top-dose-only effect; inactive means no such curve, though single readings can be large or run the other way. A potency beside an inconclusive call is a rough fit, not a confirmed value. Peptide text beside a SMILES is read from it. * marks the point of attachment. Cbz = O=C(OCc1ccccc1)*
# Test: qHTS for Inhibitors of TGF-b; further: nearly all actives have a fitted effect of over 65% in size
# Conditions: HepG2 CAGA-GFP TGF-b/SMAD3 reporter, GFP fluorescence, 18 h, TGF-beta stimulated, 500 pg/mL final; series mostly up to 46.1 µM
# Outline: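 First, reporter cells (HEPG2 CAGA-GFP) rested 2 h at 37 degrees C. Next, compounds were pinned in and TGF-beta added to 500 pg/mL final. After 18 h, GFP was imaged per cell and summed per well.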
# Potency means the concentration at half of the fitted maximal effect; tags describe the fitted curve by direction and shape.
row,SMILES,Potency
1,CC(C)(C)c1ccc(OCC(=O)NNC(=S)NC(=O)c2ccco2)c(Br)c1,inactive
2,Cc1c(Cc2ccccc2)sc(/N=C/c2c(O)ccc3ccccc23)c1C(N)=O,inactive
3,CCC(Oc1ccccc1)C(=O)Nc1cc(Cl)ccc1-n1cncn1 (stereo unspecified),inactive
4,COc1ccccc1N(CC(O)COc1c(C)cc(C)cc1C)S(=O)(=O)c1ccccc1 (stereo unspecified),active: 12.6 µM
5,CC(=O)NC(NC(=S)Nc1ccc(N=Nc2ccccc2)cc1)C(Cl)(Cl)Cl (stereo unspecified),"inconclusive: 35.5 µM [inhibitor, single point]"
6,Cc1ccc(N(C(=O)CNC(=O)c2ccco2)C(C(=O)NC2CCCC2)c2cccnc2)cc1 (stereo unspecified),inactive
7,COc1cc2cc(Oc3ccc4ccc(=O)oc4c3)c(=O)oc2cc1O[C@@H]1O[C@H](CO)[C@@H](O)[C@H](O)[C@H]1O,inactive
8,COC(=O)c1ccc(CO/N=C/c2ccccc2OC)cc1,inactive
9,Cc1cccc(N2C(=O)CN(Cc3sccc3C)C2=S)c1,"inconclusive: 15.8 µM [inhibitor, single point]"
10,CCOC(=O)C1=C(C)N[C@@]2(O)c3ccccc3C(=O)[C@@]12O,inactive
11,CC(=O)Nc1ccc2nc(NS(=O)(=O)c3ccc(C)cc3)sc2c1,inactive
12,COc1ccc(NC(=O)/C(C#N)=C/c2ccc(-c3ccc(Cl)c(C(=O)O)c3)o2)cc1,inactive
13,CCc1ccc(CNC(=O)c2cnc(N3CCCCC3)c3ccccc23)cc1,"inconclusive: 12.6 µM [inhibitor, partial curve, poor fit]"
14,COc1ccc(-c2ccc(-c3nc4ccc(C)cn4c3NC3CCCCC3)cc2OC)cc1,"inconclusive: 35.5 µM [inhibitor, single point]"
15,CN1CCN(CCCNC(=O)c2ccc(/C=C3/Sc4ccccc4N(Cc4cccc(Cl)c4)C3=O)cc2)CC1,"inconclusive: 20 µM [inhibitor, single point]"
16,Cc1ccc(CN(c2ccc(C(=O)Nc3cccnc3)cc2)S(C)(=O)=O)cc1,inactive
17,Cc1ccc(C(=O)NCCC(C)C)cc1NC(=O)c1nsc2ccccc12,"inconclusive: 12.6 µM [inhibitor, partial curve, poor fit]"
18,COc1cc2c(=O)c(C(=O)c3ccc(F)cc3)cn(Cc3cccc(F)c3)c2cc1OC,inactive
19,O=S1(=O)NC(=NCc2ccco2)c2ccccc21,inactive
20,CC(=O)N1CCN(C(=O)C2CCN(S(=O)(=O)c3ccccc3C(F)(F)F)CC2)CC1,inactive
21,Cc1ccc(NC(=O)CSc2nc(N)c3c4c(sc3n2)CSC(C)(C)C4)cc1,"inconclusive: 35.5 µM [inhibitor, single point]"
22,CCc1cc(C(=O)Nc2ncccc2O)sc1C,inactive
23,COC(=O)c1cc(S(=O)(=O)N2CCN(c3cc(Cl)ccc3C)CC2)c[nH]1,"inconclusive: 35.5 µM [inhibitor, single point]"
24,CC1=C(C(N)=O)C(c2ccccc2F)n2nc(-c3ccc(Cl)cc3)nc2N1 (stereo unspecified),inactive

row,SMILES,Potency
1,Nc1ccc2ccccc2c1N=Nc1ccccc1,"inconclusive: 12.6 µM [inhibitor, single point]"
2,CCOC(=O)[C@@H]1[C@H]2COc3cc(OC)ccc3[C@@H]2N2C(=O)N(c3cccc(Cl)c3)C(=O)[C@]12C,inactive
3,Cc1cc(C(F)(F)F)nn1CC(=O)NNC(=S)NCC(C)C,inactive
4,Cc1ccc(CNC(=O)Cn2cc3c(n2)-c2c(oc(C(=O)N4CCOCC4)c2C)CC3)cc1,"inconclusive: 35.5 µM [inhibitor, single point]"
5,O=S(=O)(NCC(c1ccco1)N1CCOCC1)c1ccc(F)cc1 (stereo unspecified),"inconclusive: 8.91 µM [inhibitor, partial curve, poor fit]"
6,CCN(c1ccccc1)S(=O)(=O)c1cccc(C(=O)N(C)CCOc2ccccc2)c1,inactive
7,Cc1ccc(CNc2ncnc3ccc(-c4ccc(CO)o4)cc23)o1,inactive
8,COc1ccc(Cl)cc1NC(=O)CSc1nnc2[nH]c(=O)cc(C)n12,"inconclusive: 0.447 µM [inhibitor, partial curve, poor fit]"
9,CCCCCCCCSC1=CC(=O)C(OC)=C(OC)C1=O,active: 10 µM
10,Cc1csc(SCC(=O)NCCc2ccc(Cl)cc2)n1,inactive
11,CCC(C)C(NC(=O)C(Cc1ccc(O)cc1)NC(=O)OCc1ccccc1)C(=O)OC (stereo not drawn) (Cbz-Tyr-Ile-OMe; configuration not given here),"inconclusive: 11.2 µM [inhibitor, partial curve, poor fit]"
12,CCC(C)NC(=O)C1CCC(=O)N(c2ccc3c(c2)OCO3)C1c1ccc(OC)cc1 (stereo unspecified),"inconclusive: 35.5 µM [inhibitor, single point]"
13,COc1ccc(OC)c(NC(=O)N2CC(C)Oc3ccc(C)cc32)c1 (stereo unspecified),"inconclusive: 0.708 µM [inhibitor, full curve, poor fit]"
14,Cc1c(-c2ccc(Cl)cc2)oc(=O)c2c(N)n(-c3ccccc3)nc12,inactive
15,CCC(C)NC(=O)Nc1ccc(Br)cc1Cl (stereo unspecified),"inconclusive: 28.2 µM [inhibitor, partial curve, poor fit]"
16,CC(C)(C)NC(=O)NCC1CCCC1NC(=O)NC(C)(C)C (stereo unspecified),inactive
17,CCCCn1c(CNC(=O)C23CC4CC(CC(C4)C2)C3)nnc1SC(C)CC (stereo unspecified),"inconclusive: 35.5 µM [inhibitor, single point]"
18,CCOC(=O)NC(c1ccc(C(C)C)cc1)C(Cl)(Cl)Cl (stereo unspecified),inactive
19,COc1cccc(C2c3cc4c(cc3OC(N3CCCC3)C2C)OCO4)c1O (stereo unspecified),"inconclusive: 14.1 µM [inhibitor, single point]"
20,COc1ccc(C(=O)Nc2nc(-c3nnn(-c4ccc(F)cc4F)c3C)ns2)cc1,"inconclusive: 8.91 µM [inhibitor, partial curve, poor fit]"
21,CC(C)c1nc2ccc(C(=O)NCCCN3CCN(c4ccccc4)CC3)cc2o1,inactive
22,O=C(CN1CCN(Cc2ccc(F)cc2Cl)C1=O)NCCc1ccc(Cl)cc1,"inconclusive: 15.8 µM [inhibitor, single point] and inconclusive: 20 µM [inhibitor, single point]"
23,O=C(CN1CCN(C(=O)N2CCOCC2)CC1)Nc1ccc(Br)cc1,inactive
24,CCc1ccc(NC(=O)CCS(=O)(=O)c2ccc(Br)cc2)cc1,"inconclusive: 35.5 µM [inhibitor, single point]"

row,SMILES,Potency
1,C=CS(=O)(=O)N(Cc1ccccc1Br)[C@H](CO)Cc1ccccc1,"inconclusive: 35.5 µM [inhibitor, single point]"
2,COc1ccc(Cl)cc1NC(=O)C(C)Sc1nnc(C2CC2)n1C1CC1 (stereo unspecified),"inconclusive: 0.708 µM [inhibitor, full curve, poor fit]"
3,COc1cccc(-c2cc3nc(NCCN4CCCC4)n(C)c(=O)c3s2)c1,inactive
4,O=C(O)CCc1nc2ccccc2c(=O)[nH]1,"inconclusive: 11.2 µM [inhibitor, single point]"
5,Cc1ccc(-n2c(-c3ccccc3)c[nH]c2=S)cc1,"inconclusive: 3.55 µM [inhibitor, full curve]"
6,O=[N+]([O-])c1cccc(/C=N/Nc2nc(NCc3ccccc3)nc(N3CCOCC3)n2)c1,inactive
7,CC(C)(C)NC(=O)CCN(/N=C/c1ccc([N+](=O)[O-])o1)C1=NS(=O)(=O)c2ccccc21,"inconclusive: 12.6 µM [inhibitor, partial curve, poor fit]"
8,CCc1cccc(NC(=O)CCc2c(C)nn(-c3ccc(N4CCCCC4)nn3)c2C)c1,inactive
9,CCNC(=O)C1(C)CCCN(Cc2ccc3ccccc3c2Br)C1 (stereo unspecified),"inconclusive: 35.5 µM [inhibitor, single point]"
10,CC(=O)ON1C(C)(C)CC(OC(=O)c2ccccc2)CC1(C)C,inactive
11,CCCc1nc2c(C)cc(Br)cn2c1Cc1ccc(C)cc1,"inconclusive: 12.6 µM [inhibitor, single point]"
12,Cc1ccc2c(c1)=N/C(=N\c1[nH]c(O)c3ccccc13)N=2,"inconclusive: 25.1 µM [inhibitor, single point]"
13,CCOC(=O)C1C(=O)CC(C)(O)C(C(=O)OCC)C1c1ccc(OC)cc1 (stereo unspecified),"inconclusive: 20 µM [inhibitor, single point]"
14,Cc1cc(/C=N\NC(=O)CC(=O)NC2CCCCC2)c(C)n1-c1cccc(Cl)c1Cl,"inconclusive: 22.4 µM [inhibitor, partial curve, poor fit]"
15,COc1ccc(OCC(=O)NC(=O)c2ccccc2OC)c([N+](=O)[O-])c1,"inconclusive: 2.82 µM [inhibitor, single point]"
16,CC(=O)c1ccc(NC(=O)c2cc(CC(C)C)nc3ccccc23)cc1,inactive
17,Oc1c(N=NC(=S)Nc2ccccc2F)c2ccccc2n1Cc1ccccc1,inactive
18,CCOc1ccc(Nc2nc(C)c(NC(=O)c3cccc(OC)c3)c(Nc3ccc(OCC)cc3)n2)cc1,"inconclusive: 20 µM [inhibitor, partial curve, poor fit]"
19,COc1cccc(CN(C)C(=O)CNC(=O)c2ccc(-c3ccccc3)cc2)c1OC,"inconclusive: 12.6 µM [inhibitor, partial curve]"
20,CN1CCN(c2cc(N3CCc4ccccc4C3)c(F)cc2[N+](=O)[O-])CC1,"inconclusive: 25.1 µM [inhibitor, single point]"
21,COc1ccc(C(=O)Cn2c(Br)nc3c2c(=O)n(C)c(=O)n3C)cc1OC,inactive
22,C[C@H](CO)N1C[C@H](C)[C@@H](CN(C)S(=O)(=O)c2ccccc2)Oc2c(NC(=O)c3ccncc3)cccc2C1=O,inactive
23,Cc1nn(C)c(Cl)c1CN1CCC(CO)(CCOc2ccccc2)CC1,"inconclusive: 3.16 µM [inhibitor, single point]"
